From the supplement of paper PMC6089552
Among all 3,200 compounds or so, about 300 (9.4%) showed activity. This is a selection; strong and weak results do not stand in their true shares.

Tested on: A673/TR/shEF
Experiment: cell viability (LOESS-normalised, relative to median of negative controls) (log2 ratio); higher = more viable cells (less compound effect), active = hit call of the paper (over 3 MAD below the median)
Conditions: treatment time: 72 h
Procedure, shortened: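 Viability of A673/TR/shEF Ewing sarcoma cells was determined by CellTiter-Glo luminescence. The cells, at 1,500 per well in 384-well plates, were grown with or without doxycycline from 24 h before compound addition to switch on EWS-FLI1 shRNA knockdown, then exposed for three days to library compounds at two or more concentrations or to DMSO controls. Signals were LOESS-corrected plate by plate, normalised to the negative-control median and log2-transformed.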

[1] = 0.25 µM, library screen: screen1, EWS-FLI1 expression: high (no doxycycline)
[2] = 0.25 µM, library screen: screen1, EWS-FLI1 expression: low (doxycycline-induced shRNA knockdown)
[3] = 2.5 µM, library screen: screen1, EWS-FLI1 expression: high (no doxycycline)
[4] = 2.5 µM, library screen: screen1, EWS-FLI1 expression: low (doxycycline-induced shRNA knockdown)
[5] = 0.25 µM, library screen: screen2, EWS-FLI1 expression: high (no doxycycline)
[6] = 0.25 µM, library screen: screen2, EWS-FLI1 expression: low (doxycycline-induced shRNA knockdown)
[7] = 2.5 µM, library screen: screen2, EWS-FLI1 expression: high (no doxycycline)
[8] = 2.5 µM, library screen: screen2, EWS-FLI1 expression: low (doxycycline-induced shRNA knockdown)

Measured: cell viability (log2)

NC(Cn1ccc(=O)c(O)c1)C(=O)O (stereo not given)
inactive: [1] 0.0522 | [2] -0.0418 | [3] 0.144 | [4] 0.00731

CC1=NS(=O)(=O)c2cc(Cl)ccc2N1
inactive: [5] 0.0993 | [6] 0.0504 | [7] 0.157 | [8] 0.101

CC(C)NCC(O)COc1ccc(CC(N)=O)cc1 (stereo not given)
inactive: [1] 0.112 | [2] -0.13 | [5] 0.0893 | [6] 0.153 | [3] 0.197 | [4] 0.0109 | [7] 0.101 | [8] 0.141

O=C1O[C@H]([C@@H](O)CO)C([O-])=C1[O-].[Ca+2]
inactive: [1] 0.0808 | [2] 0.0736 | [3] 0.131 | [4] 0.127

CC1(C)C[C@@]23C(=O)CC[C@@H](O)C2(C)CC[C@H]13 (stereo not given in full)
inactive: [1] 0.0615 | [2] -0.0504 | [3] 0.0572 | [4] 0.0807

COC(=O)C[C@H]1C(C)(C)[C@H](O)[C@@H]2CC3=C4CC(O)O[C@@H](c5ccoc5)[C@]4(C)CCC3[C@@]1(C)C2=O (stereo not given in full)
inactive: [1] 0.0798 | [2] 0.183 | [3] 0.141 | [4] 0.127

Oc1cc2c(cc1O)C(c1ccccc1)CNCC2 (stereo not given)
inactive: [5] 0.125 | [6] 0.0728 | [7] 0.12 | [8] 0.132

CN1CCN(CC(=O)N2c3ccccc3C(=O)Nc3cccnc32)CC1
inactive: [1] 0.0285 | [2] 0.0627 | [5] 0.163 | [6] 0.0865 | [3] 0.103 | [4] 0.0686 | [7] 0.175 | [8] 0.0449

CC1CCN(CC[C@H]2CCCN2S(=O)(=O)c2cccc(O)c2)CC1
inactive: [5] 0.126 | [6] 0.0228 | [7] 0.14 | [8] 0.043

CC(=O)OC12CCCC(C)(CCC3C1CC3(C)C)C2 (stereo not given)
inactive: [1] 0.0248 | [2] -0.0723 | [3] 0.116 | [4] -0.0213

NC[C@@H]1O[C@H](C23CC4CC(CC(C4)C2)C3)Cc2c1ccc(O)c2O
inactive: [5] 0.195 | [6] 0.177 | [7] 0.164 | [8] 0.0586

COc1cc(C(O)CO)ccc1O (stereo not given)
inactive: [5] 0.211 | [6] 0.11 | [7] 0.163 | [8] 0.105

CC(C(=O)O)N1C(=O)C(=Cc2cccnc2)SC1=S (stereo not given)
inactive: [1] -0.0281 | [2] 0.0107 | [3] 0.0923 | [4] -0.0695
